In the supplement of paper PMC9446081 one finds relative growth data, which are given here for 62 compounds.

The whole screen tested about 39,000 compounds, of which about 220 (0.56%) showed activity. The list shows a part of the results.
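Further: static incubation at 37 °C against the wild-type strain, values averaged over two biological replicates.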

The test deals with Escherichia coli K-12 BW25113. In words: relative growth (OD600 normalised to plate interquartile mean) (fraction); higher = less growth inhibition, active = 0.2 or less. Particulars: 50 µM; LB; incubation time: overnight (16-24 h).
For `C[C@@H]1CN([C@@H](C)CO)C(=O)c2c(c3ccccc3n2C)-c2ccccc2CO[C@H]1CN(C)Cc1cccc(C(=O)O)c1`, the relative growth is inactive: 0.987.

Take `COc1ccc(NC(=O)N(C)C[C@H]2Oc3ccc(NC(=O)Cn4cnnn4)cc3C(=O)N([C@@H](C)CO)C[C@@H]2C)cc1`: the relative growth is inactive: 1.01.

Turning to `C=CC(=O)NC(C)(C)CCN1CCOCC1`, the relative growth was inactive: 0.994.

As for `C[C@@H]1CCCCO[C@H](CN(C)C(=O)Nc2ccccc2)[C@@H](C)CN([C@@H](C)CO)C(=O)c2cc(NS(=O)(=O)c3ccc(Cl)cc3)ccc2O1`, the relative growth is inactive: 1.06.

For `C[C@H]1CCCCO[C@@H](CN(C)Cc2ccc(C(F)(F)F)cc2)[C@@H](C)CN([C@@H](C)CO)C(=O)c2cc(NC(=O)C3CCCCC3)ccc2O1`, the relative growth is inactive: 0.991.

On to `CCN1C(=O)CS/C1=N\N1CCOCC1`, for which the relative growth was inactive: 0.997.

Consider `C[C@H](CO)N1C[C@H](C)[C@@H](CN(C)C(=O)c2cc(-c3ccccc3)on2)OCc2cnnn2CCCC1=O`, for which the relative growth is inactive: 0.992.

Take `C[C@@H]1CCCCO[C@@H](CN(C)CC2CCCCC2)[C@@H](C)CN([C@@H](C)CO)C(=O)c2cc(NC(=O)NC3CCCCC3)ccc2O1`: the relative growth is inactive: 1.02.

As for `CO[C@@H](CN(C)S(=O)(=O)c1ccc(C)cc1)[C@H](C)CN([C@H](C)CO)S(=O)(=O)c1cccc(Cl)c1`, the relative growth was inactive: 1.01.

As to `C[C@H]1CCCCO[C@H](CN(C)C(=O)Nc2ccc3c(c2)OCO3)[C@@H](C)CN([C@@H](C)CO)C(=O)c2cc(NS(=O)(=O)c3ccccc3)ccc2O1`, the relative growth was inactive: 1.01.

On to `COc1ccc(NC(=O)Nc2ccc3c(c2)C(=O)N([C@H](C)CO)C[C@H](C)[C@@H](CN(C)Cc2ccncc2)OCCCC[C@@H](C)O3)cc1`, for which the relative growth was inactive: 0.983.

In the case of `NCc1cccc(Cl)c1`, the relative growth was inactive: 1.03.

With `C[C@@H]1CN([C@@H](C)CO)C(=O)Cc2cc(NC(=O)Cc3cn(C)c4ccccc34)ccc2O[C@H]1CN(C)Cc1ccc(C(=O)Nc2ccccc2N)cc1`, the relative growth was inactive: 0.988.

For `COc1ccc(S(=O)(=O)Nc2ccc3c(c2)C(=O)N([C@H](C)CO)C[C@H](C)[C@@H](CN(C)S(=O)(=O)c2ccc(Cl)cc2)OCCCC[C@@H](C)O3)cc1`, the relative growth is inactive: 1.01.

Regarding `COCCNC(=O)C[C@H]1CC[C@@H]2[C@H](COC[C@H](O)CN2S(=O)(=O)c2ccccc2C)O1`, the relative growth was inactive: 1.01.

As to `O=C(O)C[C@@H](C(=O)O)[C@H](O)c1ccccc1`, the relative growth is inactive: 1.01.

`CNC1CCC(c2ccc(Cl)c(Cl)c2)c2ccccc21.Cl` (configuration not stated): the relative growth is inactive: 0.261.

As for `C[C@@H]1CCCCO[C@H](CN(C)S(=O)(=O)c2cn(C)cn2)[C@H](C)CN([C@H](C)CO)C(=O)c2cc(NS(C)(=O)=O)ccc2O1`, the relative growth was inactive: 1.02.

As for `C[C@H](CO)N1C[C@H](C)[C@@H](CN(C)CC2CCCCC2)OCCCC[C@H](C)Oc2ccc(NC(=O)C3CCCCC3)cc2C1=O`, the relative growth was inactive: 0.985.

As to `C[C@H](CO)N1C[C@H](C)[C@H](CN(C)C(=O)C2CCCCC2)OCCCC[C@H](C)Oc2ccc(NC(=O)Nc3ccc(F)cc3)cc2C1=O`, the relative growth was inactive: 1.02.

Take `CCC(C(C)O)n1ncn(-c2ccc(N3CCN(c4ccc(OCC5COC(Cn6cncn6)(c6ccc(F)cc6F)C5)cc4)CC3)cc2)c1=O` (configuration not stated): the relative growth is inactive: 0.947.

For the compound `C[C@H](CO)N1C[C@H](C)[C@H](CN(C)Cc2ccncc2)Oc2ccc(NC(=O)c3ccncc3)cc2CC1=O`, the relative growth is inactive: 1.03.

Turning to `C[C@H]1CN([C@@H](C)CO)C(=O)Cc2cc(NS(=O)(=O)c3cn(C)cn3)ccc2O[C@@H]1CN(C)S(=O)(=O)c1ccccc1`, the relative growth is inactive: 1.02.

As to `COc1ccc(NC(=O)Nc2ccc3c(c2)C(=O)N([C@H](C)CO)C[C@@H](C)[C@@H](CN(C)S(=O)(=O)c2ccc(F)cc2)OCCCC[C@H](C)O3)cc1`, the relative growth was inactive: 1.03.

For the compound `COc1ccc(CN(C)C[C@@H]2Oc3c(NC(=O)Nc4cccc5ccccc45)cccc3C(=O)N([C@H](C)CO)C[C@@H]2C)cc1`, the relative growth is inactive: 1.02.

With `C[C@H](CO)N1C[C@H](C)[C@H](CN(C)S(=O)(=O)c2ccccc2)Oc2ccc(NC(=O)CCC(F)(F)F)cc2CC1=O`, the relative growth is inactive: 0.999.

With `COCC#Cc1cnc2c(c1)C(=O)N([C@@H](C)CO)C[C@@H](C)[C@@H](CN(C)C(=O)CN1CCOCC1)O2`, the relative growth was inactive: 1.01.

Turning to `Cc1ccc(S(=O)(=O)Nc2ccc3c(c2)CC(=O)N([C@H](C)CO)C[C@@H](C)[C@@H](CN(C)S(C)(=O)=O)O3)cc1`, the relative growth is inactive: 0.986.

`COc1ccc(-c2cnc3c(c2)C(=O)N([C@@H](C)CO)C[C@H](C)[C@H](CN(C)C(=O)C2CCOCC2)O3)cc1`: the relative growth is inactive: 1.

With `O=C(C1=C[C@H](c2ccc3c(c2)Cc2ccccc2-3)C[C@H](OCc2ccc(CO)cc2)O1)N1CCN(Cc2ccc3c(c2)OCO3)CC1`, the relative growth is inactive: 1.01.

On to `CC(C)NC(=O)N(C)C[C@@H]1OCCCC[C@H](C)Oc2ccc(NC(=O)Nc3ccc(C(F)(F)F)cc3)cc2C(=O)N([C@@H](C)CO)C[C@@H]1C`, for which the relative growth was inactive: 0.995.

For `COC(=O)c1nnc(N)[nH]1`, the relative growth is inactive: 0.994.

Regarding `C[C@@H]1CCCCO[C@H](CN(C)S(=O)(=O)c2ccc(F)cc2)[C@H](C)CN([C@H](C)CO)C(=O)c2cc(NS(=O)(=O)c3cn(C)cn3)ccc2O1`, the relative growth was inactive: 0.984.

Take `CO[C@H]1CN(C)C(=O)c2cc(NS(=O)(=O)c3ccccc3C)ccc2OC[C@H](C)N(S(C)(=O)=O)C[C@H]1C`: the relative growth was inactive: 0.984.

Turning to `C[C@H](CO)N1C[C@H](C)[C@@H](CN(C)Cc2ccncc2)Oc2ccc(NC(=O)CCCN(C)C)cc2CC1=O`, the relative growth was inactive: 0.956.

Take `C[C@@H]1CN([C@H](C)CO)C(=O)c2cc(NC(=O)Nc3ccccc3)ccc2O[C@@H](C)CCCCO[C@@H]1CN(C)Cc1ccccc1`: the relative growth was inactive: 0.964.

Regarding `CCC(=O)c1ccc(C)s1`, the relative growth was inactive: 0.983.

For the compound `C[C@@H]1CN([C@H](C)CO)C(=O)c2cccc(NC(=O)Nc3ccc(F)cc3)c2O[C@@H]1CN(C)CC1CCCCC1`, the relative growth was inactive: 0.976.

For the compound `COc1ccc(S(=O)(=O)N(C)C[C@H]2Oc3ccc(NC(=O)C4CC4)cc3CC(=O)N([C@@H](C)CO)C[C@H]2C)cc1`, the relative growth was inactive: 1.

Take `C[C@H](CO)N1C[C@H](C)[C@H](CN(C)C(=O)Nc2cccc3ccccc23)Oc2ccc(NC(=O)Cc3cn(C)c4ccccc34)cc2C1=O`: the relative growth was inactive: 1.01.

As to `C[C@@H]1CCCCO[C@H](CN(C)Cc2ccncc2)[C@@H](C)CN([C@@H](C)CO)C(=O)c2cc(NC(=O)c3ccccc3)ccc2O1`, the relative growth was inactive: 0.958.

`C[C@H]1CN([C@@H](C)CO)C(=O)Cc2cc(NC(=O)Nc3ccc(C(F)(F)F)cc3)ccc2O[C@H]1CN(C)C(=O)Nc1ccc(C(F)(F)F)cc1`: the relative growth is inactive: 1.01.

On to `Cc1noc(C)c1NC(=O)N(C)C[C@H]1Oc2ccc(NC(=O)Nc3cccc4ccccc34)cc2CC(=O)N([C@@H](C)CO)C[C@H]1C`, for which the relative growth was inactive: 1.

With `C[C@H]1CN([C@@H](C)CO)C(=O)c2cccc(NC(=O)NC3CCCCC3)c2O[C@@H]1CN(C)Cc1ccc(Oc2ccccc2)cc1`, the relative growth is inactive: 0.952.

Consider `COc1cc2c(NC3CCN(C(C)C)CC3)nc(N3CCC(F)(F)CC3)nc2cc1OCCCN1CCCC1`, for which the relative growth is inactive: 0.976.

On to `C[C@@H]1CN([C@H](C)CO)C(=O)c2cc(NC(=O)NC3CCCCC3)ccc2O[C@@H]1CN(C)S(=O)(=O)c1cn(C)cn1`, for which the relative growth is inactive: 0.984.

For `C[C@H](CO)N1C[C@H](C)[C@@H](CN(C)S(=O)(=O)c2ccc(C#N)cc2)OCc2cn(nn2)CCCC1=O`, the relative growth was inactive: 0.942.

Take `COc1cccc(C(=O)NCC(=O)O)c1`: the relative growth is inactive: 1.04.

As for `C[C@@H]1CN([C@H](C)CO)C(=O)c2cc(NC(=O)C3CC3)ccc2O[C@H]1CN(C)Cc1ccc(Oc2ccccc2)cc1`, the relative growth is inactive: 0.89.

Turning to `Cc1ccc(OC(=O)N(C)C[C@@H]2OCc3ccccc3-c3ccccc3C(=O)N([C@@H](C)CO)C[C@@H]2C)cc1`, the relative growth is inactive: 1.01.

On to `CC1OC(n2cc(F)c(=O)[nH]c2=O)C(O)C1O` (configuration not stated), for which the relative growth was inactive: 1.

For `COc1ccc(NC(=O)Nc2ccc3c(c2)C(=O)N([C@@H](C)CO)C[C@@H](C)[C@H](CN(C)CC2CCCCC2)OCCCC[C@@H](C)O3)cc1`, the relative growth is inactive: 0.971.

Consider `O=c1cc(-c2ccccc2O)oc2cc(O)ccc12`, for which the relative growth is inactive: 1.08.

In the case of `C[C@@H]1CN([C@@H](C)CO)C(=O)Cc2cc(NC(=O)Cc3ccccc3)ccc2O[C@@H]1CN(C)S(=O)(=O)c1ccccc1`, the relative growth is inactive: 1.01.

Take `C[C@H]1CN([C@@H](C)CO)C(=O)c2c(c3ccccc3n2C)-c2ccccc2CO[C@@H]1CN(C)Cc1cccc(O)c1`: the relative growth was inactive: 1.

As to `C[C@H](CO)N1C[C@H](C)[C@H](CN(C)S(=O)(=O)c2cn(C)cn2)Oc2ccc(NS(C)(=O)=O)cc2CC1=O`, the relative growth is inactive: 0.993.

`C[C@H](CO)N1C[C@H](C)[C@@H](CN(C)S(=O)(=O)c2cn(C)cn2)Oc2ccc(NC(=O)Nc3ccccc3)cc2CC1=O`: the relative growth was inactive: 0.955.

Take `CC(O)(CN)C1CC1` (configuration not stated): the relative growth is inactive: 1.01.

As to `O=C(C[C@@H]1C=C[C@H](NC(=O)Nc2ccc3c(c2)OCO3)[C@H](CO)O1)NCCCN1CCOCC1`, the relative growth is inactive: 1.03.

In the case of `Cc1ccc(S(=O)(=O)N[C@H]2CC[C@H](CCNC(=O)CN3CCOCC3)O[C@H]2CO)cc1`, the relative growth is inactive: 0.979.

On to `C[C@H]1CN([C@@H](C)CO)C(=O)Cc2cc(NC(=O)Nc3ccccc3)ccc2O[C@H]1CN(C)Cc1ccc(Cl)c(Cl)c1`, for which the relative growth is inactive: 0.978.

Consider `C[C@@H]1CN([C@H](C)CO)C(=O)c2cc(NS(=O)(=O)c3cn(C)cn3)ccc2O[C@H]1CN(C)S(=O)(=O)c1ccc(Cl)cc1`, for which the relative growth was inactive: 1.
